Laboratory results reported in the supplement of paper PMC3334620.
Over roughly 33,000 sequences, “E-score (-0.5 to 0.5)” has its median near -0.032; the highest 2% begin near 0.36. The list shows a part of the results.

What follows are sequences tested against T1, Sko1 (UniProt Q02100) (assay: PBM E-score (8-mer binding enrichment) (E-score (-0.5 to 0.5)); higher = stronger / more preferred TF binding; most listed sequences are background and not binding sites). Details: protein concentration: 200 nM; construct: GST-full length.
T1 sequence: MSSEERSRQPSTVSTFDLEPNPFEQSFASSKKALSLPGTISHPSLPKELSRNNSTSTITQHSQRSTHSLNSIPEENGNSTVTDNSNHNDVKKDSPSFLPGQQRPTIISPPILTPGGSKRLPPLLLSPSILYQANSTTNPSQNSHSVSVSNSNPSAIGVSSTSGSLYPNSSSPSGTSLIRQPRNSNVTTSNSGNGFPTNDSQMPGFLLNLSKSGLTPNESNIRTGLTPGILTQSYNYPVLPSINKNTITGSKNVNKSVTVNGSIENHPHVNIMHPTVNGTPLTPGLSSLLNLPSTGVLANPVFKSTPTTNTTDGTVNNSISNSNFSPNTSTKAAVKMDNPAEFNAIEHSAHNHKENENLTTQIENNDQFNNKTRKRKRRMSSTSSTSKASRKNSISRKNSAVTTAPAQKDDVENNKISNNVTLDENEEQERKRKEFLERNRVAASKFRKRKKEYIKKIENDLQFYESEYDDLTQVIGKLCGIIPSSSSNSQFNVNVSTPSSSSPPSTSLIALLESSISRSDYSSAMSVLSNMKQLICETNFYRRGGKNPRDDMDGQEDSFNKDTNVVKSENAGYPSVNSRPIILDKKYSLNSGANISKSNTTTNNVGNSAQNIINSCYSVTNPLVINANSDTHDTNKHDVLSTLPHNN
Outline: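 Using PURExpress in vitro transcription/translation, GST-tagged yeast transcription factors were made in full-length or DNA-binding-domain form. These were applied at about 100-200 nM to double-stranded universal all-10-mer Agilent arrays, and bound protein was detected with fluorescent anti-GST. Scans were normalised with masliner before the Universal PBM Analysis Suite assigned E-scores to ungapped eight-base words pooled with their reverse complements.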

| Sequence | PBM E-score |
| --- | --- |
| ACATCCCG | -0.121 |
| AGACGCGA | 0.0267 |
| CTTGCGTA | 0.423 |
| GCAGAAAC | 0.159 |
| AGATCGCG | 0.125 |
| AAGTTACG | 0.359 |
| GACACGCA | 0.284 |
| ACTAAAAG | -0.0606 |
| GCTAGATA | -0.0211 |
| TATAGTCA | 0.198 |
| GTATGGTA | 0.118 |
| CCAGACTC | -0.189 |
| AAGCTGAG | -0.212 |
| CTAAGAGA | -0.098 |
| CGAGAACC | -0.0241 |
| CCCCTAGG | -0.328 |
| GAGAGCAC | -0.197 |
| GACAGTAC | 0.0679 |
| ACCGTTCT | -0.209 |
| CTTAGTTC | 0.0167 |
| GAATCTAC | 0.11 |
| GAGTGCAA | -0.0317 |
| AAGACGGC | -0.219 |
| TCAAAGGA | -0.0321 |
| ATGTTATG | 0.257 |

| Sequence | PBM E-score |
| --- | --- |
| CGCAATGC | 0.257 |
| ACCACAGT | 0.0256 |
| GTAGATAC | 0.215 |
| CACCACTA | 0.0347 |
| CGCAGTGA | 0.122 |
| CAGGACCC | -0.221 |
| ATTGTAAC | 0.0439 |
| CCACGAAC | 0.15 |
| ACATGACG | 0.474 |
| CCAGGACG | 0.0314 |
| GCAGGTCC | -0.172 |
| CAAAATTA | 0.166 |
| CTGCTTCA | -0.228 |
| CCCCAAGG | -0.298 |
| CCAACTGA | -0.0126 |
| AAACATGT | 0.184 |
| CGTCATAA | 0.487 |
| GTTGCACA | 0.0444 |
| AAATCCAC | 0.0315 |
| AGAGCTTG | -0.0699 |
| ATGAGAGG | -0.224 |
| ATTCACAG | -0.0319 |
| ACGAAGAA | 0.295 |
| AGCCCGTA | -0.134 |
| AACGTTTA | 0.31 |

| Sequence | PBM E-score |
| --- | --- |
| GCCACTCC | -0.277 |
| GTACGATA | 0.287 |
| ACGGAATA | 0.0427 |
| ACGCCGGA | -0.276 |
| AAACACCC | -0.0918 |
| CCCGTCGC | -0.262 |
| ACTGCTAG | -0.263 |
| AGACTTTG | -0.0547 |
| AGGGGGGG | -0.49 |
| GATCAGTA | 0.235 |
| AATTTTGA | 0.203 |
| CCAAGGAA | -0.256 |
| ACTATGGA | -0.0882 |
| AAAGTGTC | -0.118 |
| CCCGTCGA | -0.111 |
| GATAAAAA | 0.155 |
| ATATACTG | 0.125 |
| ATTTTTTC | 0.133 |
| AGGCAAGC | -0.126 |
| CGAGATTC | 0.0133 |
| CATGATAC | 0.239 |
| CTGGCTGC | -0.304 |
| CGTCCCTA | 0.0473 |
| CCAAGTAG | -0.171 |
| CCTGGTCG | -0.159 |

| Sequence | PBM E-score |
| --- | --- |
| CTTTTGCC | -0.117 |
| GGACAGCA | -0.0316 |
| GAGACCCC | -0.309 |
| ATTTCCTG | 0.00514 |
| CGAATGAA | 0.13 |
| ATTGACAC | -0.00598 |
| AAATCTGC | 0.0449 |
| GCTCGCCC | -0.292 |
| CGGAAGGA | -0.178 |
| ACTGATAC | -0.0228 |
| ATGGTTCA | 0.0998 |
| GATAACTA | 0.0626 |
| CTAGCATA | 0.00426 |
| AACCCGTA | -0.132 |
| CTGAGCGC | -0.13 |
| AAGGAGTC | -0.258 |
| AAATGGTA | 0.0911 |
| CTTGATCC | -0.152 |
| AAAATGCC | -0.0218 |
| CCTTAGAA | 0.0918 |
| GTTCACAA | 0.119 |
| GCTGAGAC | -0.147 |
| GATGCAAA | 0.0565 |
| CGAGCTAA | -0.106 |
| GCTAATGA | 0.0704 |

| Sequence | PBM E-score |
| --- | --- |
| AGGCCTAT | -0.0177 |
| GCTGGAGA | -0.23 |
| AACATCCT | -0.0241 |
| GATGCCGA | -0.112 |
| GGCGTGAC | 0.213 |
| ACACTTGC | 0.0209 |
| GTATAACA | 0.255 |
| AGACGGCT | -0.354 |
| GCCGGGTA | -0.406 |
| CGTCCGGC | -0.191 |
| AAACCGGT | -0.262 |
| CCGGTTCA | -0.155 |
| GCGGTCCA | -0.323 |
| GAGGTCAA | -0.139 |
| GAAGAGGC | 0.0268 |
| ATCCAACC | -0.0108 |
| AGCGTAGG | -0.176 |
| CATCTAGA | 0.0155 |
| ACTTTTAG | -0.093 |
| TGTTAACA | 0.0988 |
| ACGTGTCG | 0.385 |
| GATTCGGA | 0.167 |
| GCTAGGAC | -0.112 |
| TCCCTCAA | -0.255 |
| GGATATAA | 0.156 |

| Sequence | PBM E-score |
| --- | --- |
| CCTACCCA | -0.215 |
| ATGGTCGC | -0.122 |
| CATTGGCC | -0.175 |
| ATACTCAG | 0.0206 |
| CCATGATA | -0.0203 |
| AGAGACCT | -0.0467 |
| GTGCACCA | 0.0396 |
| ACATAAGC | 0.119 |
| ACACACAT | 0.171 |
| GACTCTCA | -0.0645 |
| GCCTCGGA | -0.318 |
| CAGTTGAG | -0.211 |
| ACACAGCC | -0.0588 |
| GCTGCGAA | 0.0954 |
| CGACACAA | -0.0807 |
| AGATCACT | 0.0372 |
| GGTTCTTA | -0.0107 |
| TACGTCTA | 0.421 |
| GGCCGGGA | -0.343 |
| CAGATAGC | -0.186 |
| AATCACAT | 0.178 |
| AAGTACTT | -0.0466 |
| AGGTCGTC | 0.00284 |
| AAGCGTGG | -0.2 |
| AGAACGCT | -0.0919 |

| Sequence | PBM E-score |
| --- | --- |
| AAGAAATT | 0.0881 |
| GACCTACA | -0.0568 |
| GACACGGA | -0.224 |
| CCAATACG | 0.329 |
| TTCCAGAA | 0.0734 |
| CTTACCCA | -0.132 |
| GAGATACA | 0.0823 |
| AGGATCAG | -0.183 |
| CTGCAATA | 0.136 |
| ACTTCAGC | -0.146 |
| GATAGGAA | -0.0657 |
| TGTGACAA | 0.0956 |
| GGATTACC | 0.00812 |
| ACAGCAAC | 0.038 |
| GTTTCCTA | 0.11 |
| ATCCTAAG | -0.156 |
| AAAACGGA | 0.153 |
| CATTGTAC | 0.11 |
| CGTATCAC | 0.282 |
| AAAGACGT | 0.448 |
| CATGGTAG | -0.193 |
| GATACAAA | 0.112 |
